The source of these data is the supplement of paper PMC11417369.

Some of the results follow.

In the assay the test system is PfAP2-HC AP2 domain (GST-tagged). The assay can be described thus: gcPBM binding intensity (ln(normalized median fluorescence intensity)); higher = stronger DNA binding. The method in brief:
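An Agilent 4 × 180k array of primer-extended double-stranded 36-bp intergenic genomic probes, with negative controls, was incubated for 1 h with GST-tagged P. falciparum DNA-binding domains expressed in E. coli. Alexa488 anti-GST antibody detected bound protein, scanned at 488 nm. Binding intensity is the highest Masliner-normalised natural-log median intensity across replicate spots of either probe orientation.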
Regarding “ACCCTCATATTATAGACACACACAAAAAAAATAAAA [CACACA_site7941]”, the “gcPBM binding intensity (ln)” value was found to be 10.1. On to “AGAAATGAAATATACACACATACATATATACATATA [CACACA_site4033]”, for which the “gcPBM binding intensity (ln)” value amounted to 10.3. Consider “TAAATACACCCTAGACGTACATAAAAATTTAGTATG [XGTACX_site2512]”, for which the “gcPBM binding intensity (ln)” value worked out at 9.78.

Consider “ATTAATAATGAGTTATGTACATACATATTTTAAGAT [XGTACX_site7543]”, for which the “gcPBM binding intensity (ln)” value came out at 9.72. To “TATCGAGCACGGCGTGTGGAGTTACAAAGAGGAGAA [CACACA_negctrl_site40]” belongs 10.1. For the sequence GCCAATAAAGATGTGGTGCATTATATATATATATAT, the “gcPBM binding intensity (ln)” value is 9.64. For “AAATGTATAATATTTTCACACACAAGAAAAAAGAAA [CACACA_site9195]”, the “gcPBM binding intensity (ln)” value worked out at 10. As for “ATTTTTTTATAAAATTTTTATATATTATATAAATAT [GTGCAC_negctrl_site163]”, the “gcPBM binding intensity (ln)” value was found to be 9.47. Consider “TAAAAATAGTATACAACACACGAGGGAAAATAAAGT [CACACA_site3837]”, for which the “gcPBM binding intensity (ln)” value amounted to 10.3.

Take “AGAATATTTAATTCAACACACATACATATTTATTAA [CACACA_site5318]”: the “gcPBM binding intensity (ln)” value amounted to 9.81. For the sequence “TATTGTATATACTATACACACACATACATACATACA [CACACA_site8172]”, the “gcPBM binding intensity (ln)” value is 10.3. Regarding “ATATATTTATATAAATGTACATACAGCACATTTATA [XGTACX_site4725]”, the “gcPBM binding intensity (ln)” value was found to be 9.51.

As for “CAAATATACATATGTAGTACATGTTGTAGATAATTT [XGTACX_site2790]”, the “gcPBM binding intensity (ln)” value was determined as 9.88. To “GGATAATATATTAGAACACACATATAGATGTAAAAA [CACACA_site6229]” belongs 9.96. With “GAAGCCCTATGAAAAGTGCGGTTCATGAACAAAGAA [GTGCAC_site9828]”, the “gcPBM binding intensity (ln)” value worked out at 9.86.

Turning to “TACTTTATATAAAGATCAAAAAATAAATAATTATAA [TGCATGCA_negctrl_site446]”, the “gcPBM binding intensity (ln)” value came to 9.33. To “TTATATTATACATACACACCCATATAATATGTTTTT [CACACA_site4636]” belongs 9.88; to “TCTTATGAATATCCCCGTACACATATATTTCTTATA [XGTACX_site6877]”, 9.82; to “TTGTTTTTGTTCTTGGGTACTTAAATTATAAATGAT [XGTACX_site113]”, 9.64.

On to “AGCTACACACCACAATGTACATAAATATATATGTGA [XGTACX_site1483]”, for which the “gcPBM binding intensity (ln)” value was determined as 9.73. Turning to “TATTTGTAAATCGATACACACATATAGATTAATATA [CACACA_site6237]”, the “gcPBM binding intensity (ln)” value was 9.7. To “TTTGAATCCTTATATACACACATTATAAAATATTAT [CACACA_site6406]” belongs 9.7; to “TAAAATGCAATCTGAACACACATATTTTTTTAATAT [CACACA_site6922]”, 9.73. To TACATCATACGAACAGTGCATATTATTATTGTTCTG belongs 9.67. To “ATGGATTATACGTGCACACATATATACAAATAAATA [CACACA_site640]” belongs 9.81.
